For the data set, the system named is ATP. The experiment in a line: switch fluorescence ratio, 500 uM ATP over buffer (Cy3 cluster intensity, sum of 5 cycles each) (fold (ratio)); higher = stronger signal-on switching upon ATP binding; sequences stand for … in TCGTCGGCAGCGTCAGATGTGTATAAGAGACAGTTTTTTTTTTTTTTTTTTTTTTTTT…TC. The settings on record: aptamer strand: ATP DNA aptamer (quencher-CACCTGGGGGAGTATTGCGGAGGAAGG + anchor), 100 nM annealed; ATP concentration: 500 uM; one replicate. In outline: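 Per cluster, summed Cy3 intensity from the target cycles was divided by that from the buffer cycles to give the fluorescence ratio, then averaged per switch-domain sequence. Clusters outside 100-1000 RFU were excluded. The Cy3-labelled switching-strand clusters, on a modified Illumina MiSeq flow-cell, were annealed to 100 nM quencher-labelled ATP aptamer and imaged in selection buffer, then after 15 min with 500 uM ATP at 22 °C, for five cycles with NaOH stripping and re-annealing between them.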

Values marked as one replicate rest on one cluster of the flow cell; about a third of the high ones do not repeat.
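Also: ATP exposure 15 min at 22 °C before imaging.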

In the case of ATATGGATCA, the switch fluorescence ratio worked out at 1.01.
For the sequence GGGAGAGTGC, the switch fluorescence ratio is 1.04.
The value for CACATGAAGG was 0.978; that for ATCGCAAGTG was 1.05.
Take ATAATCATTG: the switch fluorescence ratio was found to be 1.01.
To GAATAGCTGA belongs 1.02; to TTGGCTAACC, 1.02; to GTATCTACGG, 1.09.
To TTTGACTCCG belongs 1.04; to GTCCAACCTT, 0.982.
To CTGTTGTTTT belongs 0.983; to CTTGTGTTTA, 1.01.
Take TTGTGATCAT: the switch fluorescence ratio was 0.975.
To CTGAGGGACA belongs 1; to CGGGTTCCCA, 0.954.
To TTTATTCGT belongs 0.979; to GCGCCAGGAC, 1.6; to ACATGCTTAA, 1.01.
To TCTAAACTAA belongs 1.02.
As to CAAGCG, the switch fluorescence ratio came to 1.02.
For CAAACCGATT, the switch fluorescence ratio was found to be 1.05.
To TACGTAGGCT belongs 1.05.
Consider CTCAATGAGC, for which the switch fluorescence ratio was determined as 0.922.
The value for CTTGACATTT was 0.996; that for TGATGAGTAC was 0.974.
To ACCGAGCTC belongs 1.24; to GAATTTAGAG, 0.979.
To CGGAACTGT belongs 0.972.
Turning to AAGTACGC, the switch fluorescence ratio worked out at 1.18.
The value for AATAAACCGC was 1.15.
In the case of CGACGATGAG, the switch fluorescence ratio is 1.04.
To TGGGTAGAGG belongs 1.01; to GCCCTTCTCC, 1.24.
To CGTTTATCTT belongs 1.03.
To ATTGACTTTG belongs 0.98; to GGACATATAG, 0.985; to TTGCGTTTCG, 1.02.
Turning to GAGGTATGAC, the switch fluorescence ratio worked out at 0.999.
To GCTGTTGTTA belongs 1.04.
To AGAAGGTTGA belongs 1.
CGCCCGCCTT: the switch fluorescence ratio was determined as 1.22.
The value for TAGGCATGTT was 0.955; that for TGCGAGTCT was 1.1.
The value for CCGTTAGGCA was 1.04.
To TGGAACTTCC belongs 2.51.
Turning to GGCGAAATGA, the switch fluorescence ratio worked out at 0.988.
The value for AAAACCGTAC was 1.76.
The value for CCCATGGCCC was 1.01; that for ACTCTGAGGG was 1.07; that for ACGAAGTAAG was 0.949.
As for CGGAGCCACT, the switch fluorescence ratio is 1.09.
To ACTAGGGTCA belongs 0.96.
The value for CCGCGATTGA was 2.61; that for TGGGTACAGG was 1.04.
The value for TCTGTTACTT was 1.01.
Turning to CGTAGGAGCC, the switch fluorescence ratio was determined as 0.962.
To GTTGCTATTC belongs 1.03.
Regarding TATAATTCAA, the switch fluorescence ratio stood at 1.02.
As to GTGTTGCAAG, the switch fluorescence ratio amounted to 1.06.
The value for TTCTCGGTCC was 1.01; that for CAGAGTCCAC was 0.979.
To GGATAACTAC belongs 1.08.
To GGAGCCCATT belongs 0.982; to GATACAGGCA, 1.01.
ATAGAAGTTC: the switch fluorescence ratio turned out to be 1.02.
To TATTTGATAA belongs 1.07; to TGAAAGTGT, 1.
In the case of GGTAGGGGCT, the switch fluorescence ratio stood at 0.959.
For AGTTAAGACG, the switch fluorescence ratio turned out to be 0.962.
For GTCTCCCGCA, the switch fluorescence ratio was 2.31.
Regarding CTTGGGCCGG, the switch fluorescence ratio was determined as 1.02.
To TCCACTAGGG belongs 1.15; to TAATAGATTT, 0.958.
The value for ACGAACTCCA was 1.31; that for CCGGTGAACT was 1.15.
For the sequence TGATAGATTA, the switch fluorescence ratio came out at 1.06.
The value for AGGACTATTT was 0.967.
To GTTTTCTGGG belongs 0.969; to AAGTTAGTTC, 1.02; to CCGCACGGCG, 1.31.
To TCGCTAGAGA belongs 0.993.
For TGCCTATCAC, the switch fluorescence ratio was 1.02.
The value for GTTATGAACA was 1.01.
The value for CTGATCGTAT was 1.14.
To TTGTAAATGG belongs 0.975; to TTCACAGAAC, 1.08; to TAGGTTGAAG, 0.949.
With GTTGTCGGTT, the switch fluorescence ratio is 1.03.
To ACTAGCATTG belongs 1.05; to TGTGGCAAAT, 0.995; to ATTCCTGGTT, 1.03.
To GGTATCGATA belongs 1.02; to AGGCTGTTGG, 1.03.
To TCGGGGAAAC belongs 1.03.
With TGCATTAGTG, the switch fluorescence ratio was 0.984.
The value for CGCGGGGCAG was 0.997; that for ACAGTGGACA was 1.01.
To TTTGAGTCCA belongs 1.04; to CTTGGGGCGT, 0.992.
The value for AAATTTCGGC was 0.95; that for CGTAGGACCT was 1.
Turning to TTGATAATGG, the switch fluorescence ratio stood at 1.04.
With TGTTGGCCGA, the switch fluorescence ratio is 1.02.
To TCTTGATTTG belongs 0.981; to TGGCTTCTGT, 1.07.
For CTTCACGCCC, the switch fluorescence ratio was 1.24.
To CATATATTTG belongs 1.05; to GCAGTCCGCA, 2.45; to CCTGAAGCAT, 3.03.
The value for CGGGGCCGGT was 0.974; that for TATGGCTATC was 1.02.
Take ACTTAGGGCA: the switch fluorescence ratio was 1.08.
The value for CCACCTCTGA was 1.08; that for TCCGATAATG was 1.08.
The value for GAGAGTCTTA was 0.938; that for GATTTAACCC was 1; that for GACCGACCAT was 1.3.
To TAATCTCGGC belongs 0.933; to ACATAGGGGG, 1.01; to TTACGATCAA, 1.11.

For the origin of these results see the supplement of paper PMC10126150.
